# Laboratory results published in article PMC4336329 (PLoS ONE, 2015).
# In all, about 310,000 compounds went through this assay and about 14,000 (4.5%) showed an effect of 50% or more. The effect is printed as a negative number. The list shows a part of the results.
# Biological target: human ether-à-go-go-related gene (hERG) potassium channel (human, UniProt Q12809)
# Assay: primary screen, population patch clamp on CHO cells stably expressing hERG
# 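Note: peak tail current of the secondary pulse compared with the same well before compound.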
# Sequence of human ether-à-go-go-related gene (hERG) potassium channel (Q12809 whole entry, looked up): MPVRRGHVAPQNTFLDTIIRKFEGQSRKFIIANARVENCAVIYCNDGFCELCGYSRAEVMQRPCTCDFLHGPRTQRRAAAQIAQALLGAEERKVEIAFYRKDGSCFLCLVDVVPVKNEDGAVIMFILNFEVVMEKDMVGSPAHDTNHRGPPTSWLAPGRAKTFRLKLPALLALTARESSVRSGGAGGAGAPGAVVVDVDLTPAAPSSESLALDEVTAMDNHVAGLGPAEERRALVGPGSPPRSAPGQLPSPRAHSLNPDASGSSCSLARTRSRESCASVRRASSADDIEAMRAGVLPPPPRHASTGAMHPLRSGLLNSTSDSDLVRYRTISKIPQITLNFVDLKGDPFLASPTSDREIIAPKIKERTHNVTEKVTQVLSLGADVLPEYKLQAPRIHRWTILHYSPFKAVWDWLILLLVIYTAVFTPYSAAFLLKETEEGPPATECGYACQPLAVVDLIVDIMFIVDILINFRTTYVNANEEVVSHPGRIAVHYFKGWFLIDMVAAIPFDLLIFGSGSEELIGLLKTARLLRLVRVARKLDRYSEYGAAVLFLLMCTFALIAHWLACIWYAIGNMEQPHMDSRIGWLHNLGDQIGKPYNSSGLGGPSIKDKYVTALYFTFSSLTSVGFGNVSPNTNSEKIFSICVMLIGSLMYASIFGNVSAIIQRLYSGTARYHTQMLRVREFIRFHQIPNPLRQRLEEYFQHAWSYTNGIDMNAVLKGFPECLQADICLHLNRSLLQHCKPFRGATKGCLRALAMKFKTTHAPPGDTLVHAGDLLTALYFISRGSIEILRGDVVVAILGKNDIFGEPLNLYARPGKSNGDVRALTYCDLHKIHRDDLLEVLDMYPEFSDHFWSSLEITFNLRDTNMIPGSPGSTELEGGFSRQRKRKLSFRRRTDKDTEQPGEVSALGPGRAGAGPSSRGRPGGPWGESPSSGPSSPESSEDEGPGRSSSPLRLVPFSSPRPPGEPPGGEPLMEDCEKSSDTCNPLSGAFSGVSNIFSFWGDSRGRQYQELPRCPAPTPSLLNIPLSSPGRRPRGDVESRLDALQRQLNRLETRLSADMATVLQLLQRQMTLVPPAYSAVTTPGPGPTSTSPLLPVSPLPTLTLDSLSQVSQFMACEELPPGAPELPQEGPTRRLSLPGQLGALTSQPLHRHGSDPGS
row,Compound,"hERG current change (%, negative = inhibition) at 10uM"
1,Cn1c2ccccc2c2nn(-c3ccccc3)c(=O)cc21,-1.53%
2,O=C(COC(=O)Cn1cnc2ccccc21)NCCc1ccc(Cl)cc1,-6.55%
3,CN1CCN(C(=O)c2cnn(-c3ccccc3)c2NC(=O)c2ccccc2)CC1,-17.8%
4,Cc1cc(C(=O)NC2CCCc3c2cnn3-c2ccc(C)c(C)c2)n(C)n1 (centres unmarked),-8.37%
5,Cc1ccc(S(=O)(=O)NCCC(=O)Nc2nccs2)cc1,23.3%
6,COC(=O)c1ccc(COc2ccccc2/C=C(\C#N)C(=O)Nc2ccc(C)cc2)cc1,1.57%
7,COc1ccc(CCNC(=O)COC(=O)c2ccc(N3CCCC3=O)cc2)cc1OC,25.6%
8,Cc1ccc2nc(CNC(=O)C3CCC(=O)N(Cc4ccccc4F)C3)cn2c1 (centres unmarked),-2.21%
9,CCn1cc(C(=O)N2CCCCC2)c2ccccc21,0.331%
10,NNc1nc(-c2ccccc2)nc2sc3c(c12)CCCC3,13.3%
11,Cc1ccc(C(C)C)c(OCC(=O)NN=C2CCCC2)c1,-0.556%
12,Cc1ccc(N(C)C(=O)CCNC(=O)Cn2cnc3ccccc3c2=O)cc1C,-8.84%
13,CN(C)c1nc(N)c([N+](=O)[O-])c(NCC2CCCO2)n1 (centres unmarked),7.07%
14,O=S(=O)(c1cccc(C(F)(F)F)c1)N1CCC(c2nc3ccccc3[nH]2)CC1,0.277%
15,NC(=O)c1ccc(NC(=O)COC(=O)CCN=C2NS(=O)(=O)c3ccccc32)cc1,0.194%
16,CC1CN(C(=S)Nc2ccc(S(N)(=O)=O)cc2)CC(C)O1 (centres unmarked),6.63%
17,COc1ccc(CCNC(=O)CSc2nc(C)nc3c2c(=O)n(C)c(=O)n3C)cc1OC,6.28%
18,Cc1cc(C)n2ncc(C(=O)O)c2n1,9.1%
19,CCOc1ccc(C(=O)NC2CCN(S(C)(=O)=O)CC2)cc1,8.09%
20,CCOC(=O)c1sc(SCc2ccccc2)c2c1CC(C)(C)CC2=O,-3.74%
21,Cc1nc2c(ncn2-c2ccccc2)c(=O)n1NC(=O)CN1CCN(C)CC1,8.15%
22,O=C1c2ccccc2C(=O)N1Cc1nc2ccccc2c(=O)n1CCN1CCOCC1,2.37%
23,CSCCC(NC(N)=O)C(=O)NCc1ccccc1Cl (centres unmarked),0.00838%

row,Compound,"hERG current change (%, negative = inhibition) at 10uM"
1,O=[N+]([O-])c1ccc(OCC(O)CNCCNc2nccc(C(F)(F)F)n2)cc1 (centres unmarked),-79.2%
2,Cc1cc(Cl)ccc1NC(=O)Nc1c(C)n(-c2ccccc2)c(=O)n1C,-5.96%
3,O=C(NC1CCC(O)CC1)c1ccc(S(=O)(=O)NCc2ccco2)cc1 (centres unmarked),25%
4,CC(C)c1ccc(NC(=O)C(c2ccccc2)N(C)C(=O)c2cnccn2)cc1 (centres unmarked),-23.9%
5,COc1ccc(CCc2nnc(CCC(=O)N(C)Cc3ccnc4ccccc34)o2)cc1,-37.7%
6,O=C(CN1C(=O)NC2(CCCCCCC2)C1=O)NC(=O)NCc1ccco1,1.73%
7,O=C(Cc1ccc(NC2=NC3CS(=O)(=O)CC3S2)cc1)NCc1ccccc1 (centres unmarked),14%
8,CCOc1ccc(CC(=O)Nc2sc(Cc3ccccc3)cc2C(N)=O)cc1OCC,11.8%
9,COC(=O)C1CCN(C(=O)C(C)Oc2ccc(Cl)cc2Cl)CC1 (centres unmarked),12.3%
10,COc1ccc(S(=O)(=O)C(C#N)c2nc3ccccc3nc2N2CCCCC2)cc1 (centres unmarked),-5.93%
11,CC(=O)/C(=C/N(C)C)C(=O)Nc1ccc(Cl)cc1Cl,9.14%
12,COc1cccc(/C=N/NC(=S)Nc2cccnc2)c1,-0.981%
13,CCOC(=O)c1c(C)[nH]c(C)c1C(=O)CSc1nc(N)cc(N)n1,18.6%
14,Cc1cccc(N=C2CSC(=O)N2)c1,4.69%
15,COc1ccc(OCCCn2cc(/C=C3/C(=N)N4C=C(C)SC4=NC3=O)c3ccccc32)cc1,11.1%
16,COc1ccccc1C(=O)OCC(=O)NC(=O)NCc1ccccc1,2.26%
17,Cn1c(SCc2nc3ccccc3[nH]2)nnc1-c1cnccn1,10.2%
18,CC1=NOC(=O)/C1=C\c1ccc2c(c1)OCO2,12.6%
19,Cc1cccn2c(=O)c3cc(C(=O)N4CCOCC4)n(C)c3nc12,-32.1%
20,CC1CN(C(c2ccco2)c2sc3ncnn3c2O)CC(C)O1 (centres unmarked),-11.4%
21,CCOc1ccc(S(=O)(=O)NCc2ccco2)cc1,1.61%
22,CN(Cc1ccc(F)cc1)C(=O)c1cc(COc2ccc(F)cc2F)on1,1.65%
23,COc1ccc(C2=CSC3=NCCN23)cc1Cl,-2.92%

row,Compound,"hERG current change (%, negative = inhibition) at 10uM"
1,O=C(N/N=C/C=C/c1ccco1)c1ccccc1Cl,10.3%
2,Cc1c(Cl)c(-c2n[nH]c(=S)n2Cc2ccco2)nn1C,15.5%
3,O=C(COc1ccc(Cl)cc1)NCc1nnc(SCC(=O)Nc2ccccc2)o1,-10%
4,CCOC(=O)N1CCN(CC(O)COc2ccc(OC)cc2C(C)(C)C)CC1.Cl (centres unmarked),-12%
5,O=C(COC(=O)c1ccc(F)c(S(=O)(=O)N2CCOCC2)c1)NCCc1ccccc1,-3.98%
6,COc1ccc2sc(N(CCCN(C)C)C(=O)c3nc4ccccc4s3)nc2c1.Cl,-5.36%
7,COCC(C)n1c(C)cc(C(=O)COC(=O)CNC(=O)c2ccccc2)c1C (centres unmarked),-5.45%
8,Cc1nc(N2CCN(C(=O)c3ccco3)CC2)nc2c1C(=O)CC(C)C2 (centres unmarked),-14.1%
9,COc1ccc(S(=O)(=O)NCc2csc(C)n2)cc1OC,12.1%
10,COCCNC(=O)CCc1ccc(S(=O)(=O)Nc2ccc(C)cc2)cc1,-11.7%
11,COc1cc(/C=C2\C(=O)NC(=O)N(c3ccccc3)C2=O)cc(OC)c1OC,4.29%
12,Cc1cc(C(=O)N2CCCC(N3CCN(c4cccc(Cl)c4)CC3)C2)n(C)n1 (centres unmarked),-4.79%
13,CN(C(=O)n1cnc2ccccc21)c1ccccc1,-7.33%
14,O=C(Cc1ccccc1)N/N=C/c1ccc(OCC(=O)Nc2ccccc2)cc1,-14.2%
15,CC(=O)NCC(=O)OC(C)C(=O)Nc1ccc(C(C)=O)cc1 (centres unmarked),-10.4%
16,CCCn1c(=N)c(C(=O)NCC2CCCO2)cc2c(=O)n3cccc(C)c3nc21 (centres unmarked),-76.3%
17,CCOc1cc2c(cc1OCC)-n1cccc1C(c1ccc(C)cc1C)NC2.Cl (centres unmarked),-0.599%
18,Fc1ccc(-c2c[nH]c(=S)n2Cc2ccccc2)cc1,-38%
19,O=C(Nc1nc2ccccc2s1)Nc1ccc(F)cc1F,17.6%
20,O=C(NCCc1ccc(Cl)cc1)C12CC3CC(CC(O)(C3)C1)C2,9.52%
21,CCN1CCN(S(=O)(=O)c2c(C)[nH]c(C)c2C(=O)N2CCCCC2)CC1,14.4%
22,Cc1cc(C)cc(-n2cc(C(=O)O)c(=O)cc2C)c1,15.8%
23,O=C(Nc1ccc2oc(-c3ccc4ccccc4c3)nc2c1)c1ccc2c(c1)OCCO2,20.7%

row,Compound,"hERG current change (%, negative = inhibition) at 10uM"
1,O=C1CC(NS(=O)(=O)c2ccc([N+](=O)[O-])cc2)CN1c1ccc2c(c1)OCCO2 (centres unmarked),-1.64%
2,COc1ccc(NS(=O)(=O)c2ccc(C)c(C(=O)N3CCCCCCC3)c2)cc1,-25.4%
3,O=C(c1cc(C(=O)NCc2ccccc2)c(=O)n(Cc2ccccc2)c1)c1cc(Cl)ccc1O,-0.908%
4,CCOC(=O)N1CCN(C(=O)Cc2cccc3ccccc23)CC1,3.71%
5,Fc1ccccc1NC(=S)NCCc1cccc(Cl)c1,9.75%
6,CCC/C(=N\NC(=O)C1CC1)c1ccccc1,-2.21%
7,CCOc1cc(NC(=S)NCc2ccco2)c(OCC)cc1NC(=O)CC(C)C,15.4%
8,Cc1ccc(-c2nc3ccccc3[nH]2)cc1NC(=S)NC(=O)c1ccccc1Br,13.6%
9,COc1ccc(-c2nnc3sc(C(C)N4C(=O)c5ccccc5C4=O)nn23)cc1 (centres unmarked),-25.2%
10,CCS(=O)(=O)c1ccc(O)c(NC(=O)Nc2ccc(C(C)(C)C)cc2)c1,9.2%
11,CS(=O)(=O)c1ccc(Cl)c(NC(=O)CCCc2nc3ccccc3c(=O)[nH]2)c1,-1.05%
12,O=c1cc(O)c2ccccc2[nH]1,16.2%
13,CCn1c(COc2ccc(OC)cc2)nc2ccccc21,-19.8%
14,Cc1ccc(-c2cc(C(F)F)n3ncc(C(=O)N4CCc5ccccc54)c3n2)cc1,13.2%
15,CNS(=O)(=O)c1cccc(C(=O)Nc2cccc(Cl)c2)c1,-14.9%
16,Cc1c(CCO)c(=O)n2c([nH]c3ccccc32)c1C#N,5.61%
17,Nc1ccc(C(=O)C(=O)c2ccc(N)cc2)cc1,14.2%
18,CC1CCCCN1c1cc(C#N)c(C#N)cc1[N+](=O)[O-] (centres unmarked),-16%
19,C=CCSc1nc2c(c(=N)n1CC=C)C1CCCC1S2 (centres unmarked),-13.6%
20,COC(=O)c1cc(CNC(=O)c2ccc(N3CCCC3)c([N+](=O)[O-])c2)ccc1OC,-23.7%
